# ± gives the standard error. Variants at the floor of the assay are shown more often than the library holds them.
# B1: glmS ribozyme (parent)
# chain: AUAAAAGCGCCAGAACUACAGAAAUGUAGUUGACGAGGAGGAGGUUUAUCGAAUUUUCGGCGGAUGCCUCCAAA
# Tests used:
# Settings in all cases: with glucosamine-6-phosphate
# glucosamine-6-phosphate [1] = variants of: B1; experiment: self-cleavage kobs at 40 uM GlcN6P; higher = faster cleavage; RNA array
# Procedure, shortened: (§1)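 kcat and KM were obtained from weighted Michaelis–Menten fits across concentrations of kobs values. Those came from one- or two-exponential decay fits to per-tile medians normalised to baseline and to non-cleaving reference variants. The variants were barcoded ribozymes transcribed in situ by E. coli RNA polymerase on sequenced MiSeq chips and tracked through a hybridised Cy3 probe at 37 °C, with 40 μM to 10 mM glucosamine-6-phosphate in HEPES/KCl/Mg(OAc)2 buffer flowed in.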
# glucosamine-6-phosphate [2] = variants of: B1; experiment: self-cleavage kobs at 160 uM GlcN6P; higher = faster cleavage; RNA array
# Procedure, shortened: as §1
# glucosamine-6-phosphate [3] = variants of: B1; experiment: self-cleavage kobs at 640 uM GlcN6P; higher = faster cleavage; RNA array
# Procedure, shortened: as §1
# glucosamine-6-phosphate [4] = variants of: B1; experiment: self-cleavage kobs at 2500 uM GlcN6P; higher = faster cleavage; RNA array
# Procedure, shortened: as §1
# glucosamine-6-phosphate [5] = variants of: B1; experiment: self-cleavage kobs at 10000 uM GlcN6P; higher = faster cleavage; RNA array
# Procedure, shortened: as §1
Variant,self-cleavage kobs at 40 uM GlcN6P (glucosamine-6-phosphate [1]),self-cleavage kobs at 160 uM GlcN6P (glucosamine-6-phosphate [2]),self-cleavage kobs at 640 uM GlcN6P (glucosamine-6-phosphate [3]),self-cleavage kobs at 2500 uM GlcN6P (glucosamine-6-phosphate [4]),self-cleavage kobs at 10000 uM GlcN6P (glucosamine-6-phosphate [5])
U31G A36G,< 1e-05 s⁻¹,< 1e-05 s⁻¹,,,
G32A C61U G62A C68U,< 1e-05 s⁻¹,< 1e-05 s⁻¹,,,
U31C G35U A53U,< 1e-05 s⁻¹,,< 1e-05 s⁻¹,< 1e-05 s⁻¹,< 1e-05 s⁻¹
G32A U49G C68A,< 1e-05 s⁻¹,,,,
G32A C71U,3.68e-05 ± 5.2e-06 s⁻¹,0.000159 ± 1.6e-05 s⁻¹,0.000487 ± 4.1e-05 s⁻¹,0.00122 ± 0.00011 s⁻¹,0.00326 ± 0.00033 s⁻¹
A33C U47C,< 1e-05 s⁻¹,,,,
A33C U47G,< 1e-05 s⁻¹,< 1e-05 s⁻¹,,,
U31G A53U C58G G60A,< 1e-05 s⁻¹,,,,
G32A G43A C50A,< 1e-05 s⁻¹,,,,
C34A A42G,< 1e-05 s⁻¹,< 1e-05 s⁻¹,< 1e-05 s⁻¹,< 1e-05 s⁻¹,
A33U C50U,< 1e-05 s⁻¹,,,,
G32C A48G,< 1e-05 s⁻¹,< 1e-05 s⁻¹,,,< 1e-05 s⁻¹
C34A U56A,< 1e-05 s⁻¹,< 1e-05 s⁻¹,,,
A33U A36U G41C C61G,< 1e-05 s⁻¹,,,< 1e-05 s⁻¹,
A33U A36C G41U U46C C71U,< 1e-05 s⁻¹,,,< 1e-05 s⁻¹,< 1e-05 s⁻¹
A33C G63U C67U,< 1e-05 s⁻¹,,,,
U31G G62C,< 1e-05 s⁻¹,< 1e-05 s⁻¹,< 1e-05 s⁻¹,,< 1e-05 s⁻¹
A33U C34U,< 1e-05 s⁻¹,< 1e-05 s⁻¹,< 1e-05 s⁻¹,,< 1e-05 s⁻¹
A33U A36C C58G U69C,4.07e-05 ± 2e-05 s⁻¹,7.32e-05 ± 1.9e-05 s⁻¹,,,
U31G C34U A42G,< 1e-05 s⁻¹,< 1e-05 s⁻¹,< 1e-05 s⁻¹,< 1e-05 s⁻¹,< 1e-05 s⁻¹
G32C G37U,< 1e-05 s⁻¹,,< 1e-05 s⁻¹,,
C34A G59A,< 1e-05 s⁻¹,< 1e-05 s⁻¹,,< 1e-05 s⁻¹,< 1e-05 s⁻¹
G32C A36C G37C,< 1e-05 s⁻¹,,,,
A33G C68A,< 1e-05 s⁻¹,,,,
G32C U65C,< 1e-05 s⁻¹,< 1e-05 s⁻¹,< 1e-05 s⁻¹,< 1e-05 s⁻¹,< 1e-05 s⁻¹
